Molecular target: T1, recombinant human ErbB2-Fc chimera (human, UniProt P04626 part only)
T1 construct: ErbB2 receptor tyrosine kinase, human; extracellular domains, lacks the TM and CT part; Described as a disulfide-linked homodimeric protein; In the reverse model it was labelled on its 6His-tag with RED-tris-NTA dye (not covalent); also called recombinant ErbB2
Assay: MST; normal model, optimised conditions: MPer lysate with the eGFP fusion kept constant around 33 nM, Fc protein titrated 1:1 in PBS with 0.05% P20 from 1 µM to 0.05 nM; 80% MST power, MST-on 30 s; blue LED
Settings: one partner purified

Kd: > 20 µM
B1: eGFP-PD-1 (non-relevant eGFP fusion protein) (natural protein)
chain: [in this place about 150 residues]VGVVGGLLGSLVLLVWVLAVICSRAARGTIGARRTGQPLKEDPSAVPVFSVDYGELDFQWREKTPEPPVPCVPEQTEYATIVFPSGMGTSSPARRGSADGPRSAQPLRPEDGHCSWPL
notes: PD-1; source: cell lysate containing the eGFP-fused protein
